# Laboratory results taken from PubChem BioAssay AID504339 (National Center for Advancing Translational Sciences (NCATS), 2011).
# Several values for one entry are separate records, joined by “and”; a condition that tells them apart may be missing. Equal values may be shown once. About 17,000 (4.4%) of roughly 390,000 compounds were called active. Inconclusive results, whose numbers are uncertain, are shown with a selection of clear calls. Calls come from the whole dose curve; as a rule, active = well fitted inhibition curve with a large enough effect; inconclusive = small, poorly fitted or top-dose-only effect; inactive = no such curve, though single readings can be large or run the other way. Potencies beside an inconclusive call are fits to weak or partial responses and may not hold up.
# Molecular target: Lysine-specific demethylase 4A (Homo sapiens) (UniProt O75164)
# Chain of UniProt O75164 (O75164 whole entry, looked up, the tested form may be a part): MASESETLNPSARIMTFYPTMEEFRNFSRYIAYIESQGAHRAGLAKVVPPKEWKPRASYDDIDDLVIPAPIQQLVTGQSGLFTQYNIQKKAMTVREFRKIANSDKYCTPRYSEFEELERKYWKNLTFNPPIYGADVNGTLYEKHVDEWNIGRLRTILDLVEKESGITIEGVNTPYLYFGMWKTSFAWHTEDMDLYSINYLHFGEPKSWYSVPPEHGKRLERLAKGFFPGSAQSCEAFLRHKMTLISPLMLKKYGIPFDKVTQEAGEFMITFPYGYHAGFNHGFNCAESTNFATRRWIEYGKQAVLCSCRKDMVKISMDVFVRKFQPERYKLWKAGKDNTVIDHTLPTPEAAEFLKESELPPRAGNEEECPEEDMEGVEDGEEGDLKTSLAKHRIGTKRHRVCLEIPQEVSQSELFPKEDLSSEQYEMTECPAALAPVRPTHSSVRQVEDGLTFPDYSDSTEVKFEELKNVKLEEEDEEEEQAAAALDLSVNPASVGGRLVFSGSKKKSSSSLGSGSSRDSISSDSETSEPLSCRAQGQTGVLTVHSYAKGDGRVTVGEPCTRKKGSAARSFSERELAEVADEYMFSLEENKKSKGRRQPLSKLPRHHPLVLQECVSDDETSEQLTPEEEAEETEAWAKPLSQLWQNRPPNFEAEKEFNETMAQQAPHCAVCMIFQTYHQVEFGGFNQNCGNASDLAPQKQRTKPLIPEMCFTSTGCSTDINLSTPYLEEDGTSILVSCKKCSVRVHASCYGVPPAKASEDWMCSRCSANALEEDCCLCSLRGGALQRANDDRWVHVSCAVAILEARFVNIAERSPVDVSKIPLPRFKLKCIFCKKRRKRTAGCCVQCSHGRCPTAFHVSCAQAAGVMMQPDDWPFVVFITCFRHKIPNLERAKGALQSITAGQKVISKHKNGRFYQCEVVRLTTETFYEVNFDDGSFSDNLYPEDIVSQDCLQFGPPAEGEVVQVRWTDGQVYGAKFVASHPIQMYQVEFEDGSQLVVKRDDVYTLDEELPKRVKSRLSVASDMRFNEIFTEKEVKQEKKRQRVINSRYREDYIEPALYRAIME
# Assay: qHTS Assay for Inhibitors of JMJD2A-Tudor Domain; note: nearly all actives have a fitted effect of over 50% in size
# Conditions: AlphaScreen JMJD2A-Tudor / H3K4me3 peptide binding; activity change, negative = inhibition: at 114 µM (top of the series)
# % is set by controls: 0 for no effect and ±100 for the full control effect; potency is the fitted concentration of half-maximal effect; tags give direction and shape of the fitted curve.
SMILES,Potency,"activity change, negative = inhibition"
Cc1cccc(N2CCN(C(=O)C3CCN(c4ncnc5c4nc4n5CCCCC4)CC3)CC2)c1C,"inconclusive: 50.1 µM [inhibitor, partial curve] and inconclusive: 50.1 µM [inhibitor, partial curve, poor fit]",
COc1ccc(NC(=O)N(C)C[C@H]2Oc3ccc(NC(=O)Nc4ccc5c(c4)OCO5)cc3C(=O)N([C@H](C)CO)C[C@@H]2C)cc1,"inconclusive: 63.1 µM [inhibitor, partial curve, poor fit]",
FC(F)Oc1ccc(NC(=S)NCc2cccnc2)cc1,,inactive: -15.6%
O=C(O)CCn1cc(/C=C2\NC(=S)N(c3ccccc3)C2=O)c(-c2ccc(Br)cc2)n1,"inconclusive: 56.2 µM [inhibitor, partial curve]",
O=C(OCC(=O)N1CCN(C(=O)c2ccco2)CC1)c1ccccc1NCCO,active: 31.6 µM,
COc1cc(S(=O)(=O)N2CCN(C(=O)c3ccco3)CC2)ccc1Cl,,inactive: -13.1%
CCCC/C(O)=C1\C(=O)CCCC1=NCCc1c(C)[nH]c2ccc(OC)cc12,"inconclusive: 20 µM [inhibitor, full curve, poor fit]",
COc1ccc(Cl)cc1Nc1cc(C)nc2nc(C)nn12,"inconclusive: 44.7 µM [inhibitor, partial curve]",
C(=N\Nc1ccccc1)/c1ccc(N2CCOCC2)cc1,"inconclusive: 56.2 µM [inhibitor, partial curve]",
CCc1cc2c(COC(=O)CCNS(=O)(=O)c3cccc(C(F)(F)F)c3)cc(=O)oc2cc1O,,inactive: -13.5%
CC1(OC(=O)CCc2ccccc2)C(=O)C=C2C=C(c3ccc(C#N)cc3)N(C3CCCC3)C=C2C1=O (configuration not stated),"inconclusive: 63.1 µM [inhibitor, partial curve]",
CN(CCCC1CCCC1)C(=O)CC1C(=O)NCCN1Cc1cccc(F)c1F (configuration not stated),,inactive: -24%
CC(=O)NC1C(OCc2ccccc2)OC2COC(c3ccccc3)OC2C1OCC(=O)O (configuration not stated),"inconclusive: 56.2 µM [inhibitor, partial curve]",
CCOC(=O)c1c2c(n(-c3ccc(OC)cc3)c1C)C(=O)C(=O)c1ccccc1-2,active: 17.8 µM,
COc1ccc2c(-c3ccccc3)cc(SCC(=O)N(C)C3CCS(=O)(=O)C3)nc2c1 (configuration not stated),"inconclusive: 31.6 µM [inhibitor, full curve, poor fit]",
CCC(CO)Oc1cc(NCc2cccc(C(F)(F)F)c2)c2ncn(C(C)C)c2c1 (configuration not stated),"inconclusive: 35.5 µM [inhibitor, single point]",
COc1ccc(CN2C(=O)c3ccccc3C(/C=N/OCc3ccc(Cl)cc3)C2=O)cc1 (configuration not stated),"inconclusive: 89.1 µM [inhibitor, single point]",
